In the supplement of paper PMC12217912:
The list shows a part of the results. Sequences were assembled here from the parent chain. Inactive controls read about 0.05.

B1: TEV protease; numbered along this chain (parent)
chain: MGESLFKGPRDYNPISSSICHLTNESDGHTTSLYGIGFGPFIITNKHLFRRNNGTLVVQSLHGVFKVKDTTTLQQHLVDGRDMIIIRMPKDFPPFPQKLKFREPQREERICLVTTNFQTKSMSSMVSDTSCTFPSGDGIFWKHWIQTKDGQCGSPLVSTRDGFIVGIHSASNFTNTNNYFTSVPKNFMELLTNQEAQQWVSGWRLNADSVLWGGHKVFMVKPEEPFQPVKEATQL

Variants of: B1
Assay: raw area under fraction-flipped curve 0-4 h after induction (AUC4h, not background-subtracted), DNA-recorder readout of cleavage of the substrate (dimensionless); higher = more cleavage of the substrate by the protease variant
Conditions: temperature: 34 °C; time window: 0-4 h after rhamnose induction
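Further: Bxb1 expression induced with 0.2% (w/v) L-rhamnose at OD600 near 0.5, cultures sampled hourly, flipped fraction per protease–substrate barcode pair counted by paired-end Illumina sequencing.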

## V183H
  area with substrate ENAYFQS: 0.0559
  area with substrate ENCYFQS: 0.0379
  area with substrate ENDYFQS: 0.0371
  area with substrate ENEYFQS: 0.0487
  area with substrate ENFYFQS: 0.0612
  area with substrate ENGYFQS: 0.0697
  area with substrate ENHYFQS: 0.0533
  area with substrate ENKYFQS: 0.056
  area with substrate ENMYFQS: 0.051
  area with substrate ENNYFQS: 0.0498
  area with substrate ENQYFQS: 0.0569
  area with substrate ENRYFQS: 0.0296
  area with substrate ENSYFQS: 0.0507
  area with substrate ENTYFQS: 0.0489
  area with substrate ENVYFQS: 0.066
  area with substrate ENYYFQS: 0.052

## G162P
  area with substrate ENAYFQS: 0.0562
  area with substrate ENDYFQS: 0.0327
  area with substrate ENEYFQS: 0.0581
  area with substrate ENFYFQS: 0.0382
  area with substrate ENGYFQS: 0.061
  area with substrate ENIYFQS: 0.0631
  area with substrate ENKYFQS: 0.0534
  area with substrate ENMYFQS: 0.0283
  area with substrate ENNYFQS: 0.0536
  area with substrate ENPYFQS: 0.049
  area with substrate ENQYFQS: 0.0431
  area with substrate ENSYFQS: 0.0701
  area with substrate ENTYFQS: 0.0469
  area with substrate ENVYFQS: 0.0555
  area with substrate ENYYFQS: 0.0435

## P222F
  area with substrate ENAYFQS: 0.0555
  area with substrate ENCYFQS: 0.0574
  area with substrate ENDYFQS: 0.0628
  area with substrate ENEYFQS: 0.0577
  area with substrate ENFYFQS: 0.0574
  area with substrate ENGYFQS: 0.0604
  area with substrate ENHYFQS: 0.0555
  area with substrate ENIYFQS: 0.0931
  area with substrate ENMYFQS: 0.0629
  area with substrate ENPYFQS: 0.0044
  area with substrate ENQYFQS: 0.0472
  area with substrate ENRYFQS: 0.0591
  area with substrate ENSYFQS: 0.0662
  area with substrate ENTYFQS: 0.064
  area with substrate ENVYFQS: 0.0637
  area with substrate ENWYFQS: 0.0514
  area with substrate ENYYFQS: 0.0616

## P222D
  area with substrate ENAYFQS: 0.0566
  area with substrate ENDYFQS: 0.0587
  area with substrate ENEYFQS: 0.0581
  area with substrate ENFYFQS: 0.0481
  area with substrate ENGYFQS: 0.0631
  area with substrate ENKYFQS: 0.0588
  area with substrate ENNYFQS: 0.0488
  area with substrate ENPYFQS: 0.0631
  area with substrate ENQYFQS: 0.0614
  area with substrate ENSYFQS: 0.0537
  area with substrate ENTYFQS: 0.0593
  area with substrate ENWYFQS: 0.0095
  area with substrate ENYYFQS: 0.0564

## S169M
  area with substrate ENAYFQS: 0.0799
  area with substrate ENCYFQS: 0.0626
  area with substrate ENDYFQS: 0.0631
  area with substrate ENEYFQS: 0.0581
  area with substrate ENFYFQS: 0.0624
  area with substrate ENGYFQS: 0.075
  area with substrate ENIYFQS: 0.0646
  area with substrate ENNYFQS: 0.0807
  area with substrate ENPYFQS: 0.0637
  area with substrate ENQYFQS: 0.0547
  area with substrate ENRYFQS: 0.0561
  area with substrate ENSYFQS: 0.0577
  area with substrate ENTYFQS: 0.0564
  area with substrate ENVYFQS: 0.0631
  area with substrate ENWYFQS: 0.0609

## F226H
  area with substrate ENAYFQS: 0.0557
  area with substrate ENCYFQS: 0.0604
  area with substrate ENDYFQS: 0.0328
  area with substrate ENEYFQS: 0.0545
  area with substrate ENFYFQS: 0.0676
  area with substrate ENGYFQS: 0.0856
  area with substrate ENHYFQS: 0.0734
  area with substrate ENIYFQS: 0.137
  area with substrate ENKYFQS: 0.0603
  area with substrate ENNYFQS: 0.0649
  area with substrate ENPYFQS: 0.0437
  area with substrate ENQYFQS: 0.0728
  area with substrate ENRYFQS: 0.053
  area with substrate ENSYFQS: 0.0674
  area with substrate ENTYFQS: 0.0564
  area with substrate ENVYFQS: 0.0534
  area with substrate ENYYFQS: 0.0617

## W199E
  area with substrate ENAYFQS: 0.0622
  area with substrate ENDYFQS: 0.0617
  area with substrate ENEYFQS: 0.0615
  area with substrate ENFYFQS: 0.0614
  area with substrate ENGYFQS: 0.0633
  area with substrate ENMYFQS: 0.0791
  area with substrate ENNYFQS: 0.0527
  area with substrate ENPYFQS: 0.0702
  area with substrate ENQYFQS: 0.0663
  area with substrate ENSYFQS: 0.0737
  area with substrate ENTYFQS: 0.0505
  area with substrate ENVYFQS: 0.0662
  area with substrate ENYYFQS: 0.0676

## L156Q
  area with substrate ENAYFQS: 0.0493
  area with substrate ENCYFQS: 0.047
  area with substrate ENDYFQS: 0.0572
  area with substrate ENEYFQS: 0.0566
  area with substrate ENFYFQS: 0.0544
  area with substrate ENHYFQS: 0.0487
  area with substrate ENKYFQS: 0.0319
  area with substrate ENNYFQS: 0.0507
  area with substrate ENPYFQS: 0.0519
  area with substrate ENQYFQS: 0.0625
  area with substrate ENRYFQS: 0.0517
  area with substrate ENSYFQS: 0.0508
  area with substrate ENVYFQS: 0.0485
  area with substrate ENWYFQS: 0.0853

## Q197D
  area with substrate ENAYFQS: 0.0577
  area with substrate ENCYFQS: 0.0707
  area with substrate ENDYFQS: 0.0647
  area with substrate ENEYFQS: 0.0588
  area with substrate ENFYFQS: 0.0561
  area with substrate ENGYFQS: 0.0661
  area with substrate ENNYFQS: 0.0585
  area with substrate ENQYFQS: 0.0476
  area with substrate ENRYFQS: 0.0528
  area with substrate ENSYFQS: 0.0603
  area with substrate ENTYFQS: 0.0793
  area with substrate ENVYFQS: 0.0624
  area with substrate ENWYFQS: 0.0518

## M219S
  area with substrate ENAYFQS: 0.0581
  area with substrate ENCYFQS: 0.0566
  area with substrate ENDYFQS: 0.0525
  area with substrate ENEYFQS: 0.0487
  area with substrate ENIYFQS: 0.0886
  area with substrate ENKYFQS: 0.0623
  area with substrate ENMYFQS: 0.0732
  area with substrate ENNYFQS: 0.0526
  area with substrate ENPYFQS: 0.0641
  area with substrate ENQYFQS: 0.0592
  area with substrate ENRYFQS: 0.0609
  area with substrate ENSYFQS: 0.0556
  area with substrate ENTYFQS: 0.0554
  area with substrate ENVYFQS: 0.0612
  area with substrate ENWYFQS: 0.0239
  area with substrate ENYYFQS: 0.0575

## S171F
  area with substrate ENAYFQS: 0.0622
  area with substrate ENDYFQS: 0.0635
  area with substrate ENEYFQS: 0.0459
  area with substrate ENGYFQS: 0.0613
  area with substrate ENNYFQS: 0.0662
  area with substrate ENQYFQS: 0.0574
  area with substrate ENRYFQS: 0.0663
  area with substrate ENTYFQS: 0.0505

## V220W
  area with substrate ENAYFQS: 0.0619
  area with substrate ENCYFQS: 0.0562
  area with substrate ENDYFQS: 0.062
  area with substrate ENEYFQS: 0.0707
  area with substrate ENFYFQS: 0.057
  area with substrate ENGYFQS: 0.0587
  area with substrate ENHYFQS: 0.057
  area with substrate ENIYFQS: 0.0864
  area with substrate ENMYFQS: 0.117
  area with substrate ENNYFQS: 0.0629
  area with substrate ENQYFQS: 0.0626
  area with substrate ENSYFQS: 0.0704
  area with substrate ENTYFQS: 0.0581
  area with substrate ENVYFQS: 0.0744

## V220M
  area with substrate ENAYFQS: 0.0572
  area with substrate ENCYFQS: 0.0721
  area with substrate ENDYFQS: 0.0523
  area with substrate ENEYFQS: 0.0553
  area with substrate ENFYFQS: 0.0623
  area with substrate ENGYFQS: 0.0656
  area with substrate ENIYFQS: 0.129
  area with substrate ENKYFQS: 0.0537
  area with substrate ENNYFQS: 0.0567
  area with substrate ENQYFQS: 0.0584
  area with substrate ENRYFQS: 0.0644
  area with substrate ENSYFQS: 0.049
  area with substrate ENTYFQS: 0.0456
  area with substrate ENYYFQS: 0.0449
